Results as given in PubChem BioAssay AID1919001 (Molecular Pharmacology Branch, DTP, NCI, 2023).
Certain results were filed several times, with different values. This list holds those alone. The source may hold further records. Results that share an entry repeat one measurement in other runs, samples, wells, individuals or studies. Signs of the kind (2×) stand for listed records that agree.

Tested on: 699152-130-R-J1-PDC complex spheroid growth
Experiment: Anticancer human tumor 699152-130-R-J1-PDC patient-derived pancreatic carcinoma cell line growth inhibition [AhR]
Conditions: for IC50: compound alone; for viability, T/C: stronger effect = lower value
Text: Multicellular complex tumor spheroid response to aryl hydrocarbon receptor antagonists in combination with a variety of drugs and investigational agents in selected tumor cell lines
The current study was undertaken to assess response to aryl hydrocarbon receptor antagonists in combination with standard-of-care drugs and investigational agents in solid tumor complex spheroid models. Complex spheroids include a stromal component modeled by human endothelial cells (HUVEC) and fibroblasts modeled by human mesenchymal stem cells (MSCs). The concentration ranges selected for each drug and investigational agent were based upon clinically achievable concentrations if the clinical Cmax of the agent was known.
Compounds. The drugs and investigational agents: BAY 2416964 (NSC825713), GNF351 (NSC835774), CH-223191 (NSC835775), CPI-455 (NSC825282), aza-TdCyd (NSC777586), decitabine (NSC127716), belinostat (NSC758774), entinostat (NSC756642), pevonedistat (NSC761192), tazemetostat (NSC777109), talazoparib (NSC765396), olaparib (NSC753686), selinexor (NSC780203), nedisertib (M3814, NSC802822), bortezomib (NSC756655), venetoclax (NSC766270), doxorubicin (NSC123127), elimusertib (BAY189344, NSC800525), ceralasertib (AZD6738, NSC777638), TAK-243 (NSC785004), alisertib (NSC759677), etoposide (NSC141540), topotecan (NSC609699), eribulin (NSC707389), gemcitabine (NSC613327), carboplatin (NSC241240), cisplatin (NSC119875), and SN-38 (NSC673596) were obtained from the National Cancer Institute (NCI) Developmental Therapeutics Program Chemical Repository (32). The FDA-approved anticancer drug set is available from the Developmental Therapeutics Program at https://dtp.cancer.gov/organization/dscb/obtaining/available plates.htm. […] The stock solutions were prepared in dimethyl sulfoxide (DMSO, Sigma-Aldrich, St. Louis, MO, cat. D2650), except for the platinum compounds which were prepared in saline (Quality Biological, Gaithersburg, MD, cat. 114-055-101), at 800-fold the tested concentration and stored at -70 degrees C prior to their use. All drugs and investigational agents were tested over a range starting from a high concentration at or near the clinical Cmax and decreasing in half-log increments. If the clinical Cmax for an agent had not been determined, the highest concentration tested was 10 microM (Table 1).
Cell Culture. All cells were maintained in an incubator at 37 degrees C and 5% CO2 with 95% humidity. The PDC lines were cultured according to standard operating procedures established by the NCI PDMR (https://pdmr.cancer.gov). Briefly, all PDCs were thawed and cultured in Matrigel-coated flasks prepared with a working solution of 1X Ham's F-12 nutrient mix, without supplementation (Invitrogen, Waltham, MA, cat. 11765054), 100 U/mL penicillin-streptomycin (Invitrogen, cat. 15140122), and 2.5% Matrigel (Corning Inc., Corning, NY, cat. 354248) for the first three passages. All PDCs were cultured in complete DMEM/F-12 media containing advanced DMEM/F-12 (Invitrogen, cat. 12634028), 4.9% defined fetal bovine serum, heat inactivated (HyClone Laboratories Inc., Logan, UT, cat. SH30070.03HI), 389 ng/mL hydrocortisone (Sigma-Aldrich, cat. H4001), 9.7 ng/mL human EGF recombinant protein (Invitrogen, cat. PHG0313), 23.4 microg/mL adenine (Sigma-Aldrich, cat. A2786), 97.3 U/mL penicillin-streptomycin (Invitrogen, cat. 15140122), 1.9 mM L-glutamine (Invitrogen, cat. 25030081), and 9.7 microM Y-27632 dihydrochloride (Tocris Bioscience, Bristol, United Kingdom, cat. 1254). The PDCs were cultured in complete DMEM/F12 media without 10 microM Y-27632 dihydrochloride for at least two passages prior to the screen. The established cell lines NCI-H1341 and […] were cultured in DMEM/F-12, HEPES (Invitrogen, cat. 11330032), 5% defined fetal bovine serum (HyClone Laboratories Inc., cat. SH30070.03), ITS premix universal culture supplement [insulin (5 microg/mL), transferrin (5 microg/mL), and selenious acid (5 ng/mL)] […]
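Also: compound exposure lasted 7 days after spheroids had grown for 3 days.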

| SMILES | IC50 (combination with AhR antagonists, run of 07/18/2022) | viability, T/C (compound alone 0.316 µM) | viability, T/C (compound alone 1 µM) | viability, T/C (compound alone 3.16 µM) | viability, T/C (compound alone 10 µM) | viability, T/C (compound alone 0.1 µM) | IC50 |
| --- | --- | --- | --- | --- | --- | --- | --- |
| Cc1cncc(-c2nc(NCCc3c[nH]c4ccccc34)c3ncn(C(C)C)c3n2)c1 | 6.11 µM, 5.12 µM, 5.55 µM, 5.75 µM, > 10 µM, 6.18 µM, 5.79 µM, 5.4 µM, 5.63 µM, 5.66 µM, 6.85 µM, 6.67 µM, 6.72 µM, 7.39 µM, 6.63 µM, 6.76 µM, 6.42 µM, 6.48 µM, 7.2 µM, 4.53 µM, 4 µM, 3.7 µM, 4.64 µM, 3.82 µM | 106, 85.5, 108 (2×), 115, 105, 107, 98.2, 104 (3×), 91.2, 81.8, 98.3 (2×), 100, 118, 98.7, 95, 99.7% | 109 (3×), 90.8, 117, 100 (2×), 120, 105 (2×), 96.3, 102, 118, 99.8, 121, 128, 110, 115, 97.7, 106% | 104, 85.3, 96.1, 93.9, 124, 103 (2×), 95.1, 85, 92, 91.9, 107, 102, 96.4, 115, 109, 95.8, 95.2, 105, 112% | 10.1, 0.86, 1.8, 9.35, 63.1, 11.7, 9.23, 9.67, 8.1, 8.91, 27.7, 23, 25.3, 26.7, 17, 22.9, 20.9, 22.4, 19, 27.5% | – | – |
| CC(CO)NC(=O)c1cc(-c2ccc(Cl)cc2)nn(-c2cnn(C)c2)c1=O (stereo not given) | – | 96.8, 82.8, 105, 96, 108 (2×), 93.9, 99.8, 96.3, 96.7, 82.3, 94 (2×), 90.9, 81.7, 117, 100, 86, 82, 90.3, 95.1% | 92.1, 95.8, 88.5, 97.1, 113, 93.2, 86.1, 83.1, 96.3, 87.7, 86.5, 102 (2×), 77.5, 93, 103, 97.6, 97.9, 95.3, 84.7, 91.1% | 86.8, 69.9, 96.3, 89.4, 90.9, 96.1, 94, 83.4, 71.4, 83.5, 95.9, 71.5, 90.5, 87.5, 78.7, 96.9, 80, 89.2% | 87.7, 86, 83.5, 101, 79.5 (2×), 90.3, 76.8, 99.4, 70.4, 77, 89.6, 87.8, 104, 89.3, 93.5, 79.2, 73, 91% | – | – |
| Cc1ccccc1N=Nc1ccc(NC(=O)c2ccnn2C)c(C)c1 | – | 88.2, 96.5, 111, 105, 99.8, 92.3, 85.3, 91.8 (2×), 95.1, 90.3, 86.6, 78.1, 103, 96.2, 101 (2×), 104, 85.7, 92% | 104, 91.2, 102 (2×), 87.3, 108, 107, 81, 90.4, 89.5, 101 (2×), 96.5, 88.2, 76.4, 97.4, 96.3, 90.5, 90.8, 98.5% | 100 (3×), 95.7, 109, 94.2, 118, 99.1, 93.8, 91.3, 105, 101, 107 (2×), 82.8, 98.3, 114, 93.2, 106, 85.8% | 118 (2×), 106 (2×), 107 (5×), 125, 102 (2×), 114 (2×), 105, 116, 87.2, 108, 101, 97.2% | 95.5, 82.6, 101, 106 (2×), 86.6, 83.1, 91.3, 87, 95.3, 82, 87.3, 77.7, 87.1, 93.2, 99.5, 98.1, 92.9, 86.1, 97.7% | – |
| Nc1ccn(C2OC(CO)C(O)C2(F)F)c(=O)n1 (stereo not given) | – | – | – | – | – | – | > 10 µM, 629 nM, 300 nM |
